The text below walks through data of article PMC4336329 (PLoS ONE, 2015).

About 14,000 (4.5%) of roughly 310,000 compounds showed an effect of 50% or more. Effects have a minus sign here. The list shows a part of the results.
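Further: peak tail current of the secondary pulse compared with the same well before compound.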

The target in this assay is human ether-à-go-go-related gene (hERG) potassium channel (human, UniProt Q12809). As to the kind of experiment: primary screen, population patch clamp on CHO cells stably expressing hERG.
Chain of human ether-à-go-go-related gene (hERG) potassium channel (Q12809 whole entry, looked up): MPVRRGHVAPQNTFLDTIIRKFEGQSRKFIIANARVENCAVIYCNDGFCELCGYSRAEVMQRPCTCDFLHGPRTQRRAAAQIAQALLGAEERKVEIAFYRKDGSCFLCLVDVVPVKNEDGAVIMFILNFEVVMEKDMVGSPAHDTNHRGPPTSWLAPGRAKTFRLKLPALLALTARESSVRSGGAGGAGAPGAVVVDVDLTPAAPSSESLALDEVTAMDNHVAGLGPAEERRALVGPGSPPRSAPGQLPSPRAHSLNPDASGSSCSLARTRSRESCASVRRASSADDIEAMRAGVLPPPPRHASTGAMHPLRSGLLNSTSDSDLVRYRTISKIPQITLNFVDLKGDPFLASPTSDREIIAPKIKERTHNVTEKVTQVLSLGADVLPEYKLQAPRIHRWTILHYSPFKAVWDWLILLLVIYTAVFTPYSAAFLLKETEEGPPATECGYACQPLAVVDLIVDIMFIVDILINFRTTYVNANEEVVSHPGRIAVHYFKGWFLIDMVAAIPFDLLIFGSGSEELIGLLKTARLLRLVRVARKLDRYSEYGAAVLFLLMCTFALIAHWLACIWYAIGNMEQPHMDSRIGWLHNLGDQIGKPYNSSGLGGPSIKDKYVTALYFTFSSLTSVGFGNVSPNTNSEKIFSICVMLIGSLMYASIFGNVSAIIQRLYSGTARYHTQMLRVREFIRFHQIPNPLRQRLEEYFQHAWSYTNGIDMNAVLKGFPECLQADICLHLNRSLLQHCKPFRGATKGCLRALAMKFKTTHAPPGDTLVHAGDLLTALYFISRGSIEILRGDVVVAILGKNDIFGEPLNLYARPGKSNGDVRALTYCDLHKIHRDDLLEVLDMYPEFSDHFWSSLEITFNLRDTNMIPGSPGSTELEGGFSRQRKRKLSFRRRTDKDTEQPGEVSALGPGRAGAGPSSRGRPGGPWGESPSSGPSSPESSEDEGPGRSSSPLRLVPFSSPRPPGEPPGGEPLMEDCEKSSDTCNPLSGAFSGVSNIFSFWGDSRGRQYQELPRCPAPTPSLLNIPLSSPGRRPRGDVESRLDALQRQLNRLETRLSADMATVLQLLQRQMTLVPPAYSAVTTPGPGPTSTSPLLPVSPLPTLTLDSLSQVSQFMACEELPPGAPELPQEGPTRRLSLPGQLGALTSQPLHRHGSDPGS
Turning to `CC1=C(C(=O)Nc2ccc(Cl)cc2)C(c2ccco2)NC(=O)N1` (stereo not drawn), the “hERG current change (%, negative = inhibition) at 10uM” value is reported as -7.31%.

For `Oc1oc(-c2ccc(Br)cc2)nc1/C=N/c1ccccn1`, the “hERG current change (%, negative = inhibition) at 10uM” value is 8.15%. As for `CCc1ccc2c(c1)C(=O)C(=O)N2CC(=O)Nc1ccc(NC(=O)c2ccccn2)cc1`, the figure is 8.43%. As for `CCn1c(SCC(=O)Nc2nccs2)nnc1-c1ccc(C)cc1`, the figure is -11.3%; as for `CCC1CCCCN1C(=O)CCCc1ccccc1` (stereo not drawn), 2.45%; as for `O=c1cc(-c2ccc(O)cc2)oc2ccc(O)cc12`, -7.57%. Regarding `CCOC(=O)CSc1nc(Nc2ccc3c(c2)OCO3)c2ccccc2n1`, the “hERG current change (%, negative = inhibition) at 10uM” value is -8.23%. As for `CCOC(=O)C1=C(NC#N)OC(C)=C(C)C1c1ccc(O)cc1` (stereo not drawn), the “hERG current change (%, negative = inhibition) at 10uM” value is listed as -5.26%.

For `CN1CCN(C(=O)COCc2cc(-c3ccc4c(c3)OCO4)on2)CC1`, the “hERG current change (%, negative = inhibition) at 10uM” value turned out to be 6.9%. As for `COCCn1c(-c2ccc(C)cc2)nc2oc3cc(OC)ccc3c(=O)c2c1=O`, the figure is 8.53%. With `Cc1ccc(NC(=O)O/N=C2\CCCCC2c2ccc([N+](=O)[O-])cc2[N+](=O)[O-])cc1` (stereo not drawn) the figure was -8.38%; with `COc1ccc(S(=O)(=O)NCC(=O)N(CC(=O)NCC2CCCO2)Cc2ccccc2)cc1` (stereo not drawn), 9.51%; with `CCc1ccc(NC(=O)COC(=O)CCC2CCCC2)cc1`, 11.7%.

Turning to `CC1=C([N+](=O)[O-])C(c2ccccc2)NC(=O)N1` (stereo not drawn), the “hERG current change (%, negative = inhibition) at 10uM” value was found to be 21.7%. With `O=C(NC1CCCCC1)c1ccc2[nH]c(=O)c(=O)[nH]c2c1` the figure was 13.3%; with `CC(C)C1N=C2c3ccccc3N=C(SCC#N)N2C1=O` (stereo not drawn), 5.14%; with `O=C(OCCO)c1cc(Cl)c(C(=O)OCCO)cc1Cl`, 9.51%. As for `CCCCC(=O)Nc1cccc(NC(=O)c2ccc(Br)o2)c1`, the figure is -31.3%; as for `CC(C)C(=O)Nc1ncc(Cc2ccc(Cl)cc2)s1`, 6.53%; as for `Cc1ccc(SCc2c(C(=O)N/N=C/c3ccoc3)nnn2-c2nonc2N)cc1`, 20.3%. With `O=C(CN(C(=O)CNS(=O)(=O)c1ccccc1)c1ccc(Cl)cc1)NCC1CCCO1` (stereo not drawn) the figure was 3.27%; with `CCc1ccc(-c2nc(CS(=O)CC(=O)NCc3ccc4c(c3)OCO4)c(C)o2)cc1` (stereo not drawn), -33.4%; with `C=CCN(c1ccccc1)S(=O)(=O)c1cccc(C(=O)Nc2ncccc2C)c1`, -21.1%. On to `O=C(c1ccco1)N1CCN(c2ccc(S(=O)(=O)N3CCCC3)cc2)CC1`, for which the “hERG current change (%, negative = inhibition) at 10uM” value is recorded as -30.8%. With `Cc1cc(C)nc(N2CCCC(C(=O)NCc3ccc4c(c3)OCO4)C2)n1` (stereo not drawn) the figure was 20.9%; with `CCOc1ccc(Nc2nnc(SCc3nc4ccccc4c(=O)[nH]3)s2)cc1`, -8.9%; with `Cc1ccc(S(=O)(=O)CC(=O)Nc2c(C)n(C)n(-c3ccccc3)c2=O)cc1`, 11.7%. As for `NC(=S)N=Nc1c(O)n(C2OC(=O)c3ccccc32)c2ccccc12` (stereo not drawn), the figure is 6.78%. Turning to `O=C(O)CCc1ccccc1OC(=O)c1ccccc1`, the “hERG current change (%, negative = inhibition) at 10uM” value is reported as 10%. As for `CCN(Cc1nc(-c2cccc(C)c2)no1)C(=O)c1ccco1`, the figure is -17.3%; as for `Cc1nc(-c2cccc(NS(C)(=O)=O)c2)cs1`, -13.2%; as for `Cc1ccc(NC(=O)N2CCN(Cc3ccc4c(c3)OCO4)CC2)cc1`, -33.8%. With `COc1ccc(-c2cc(C(=O)c3c(N)n(C)c(=O)n(C)c3=O)c3ccccc3n2)cc1` the figure was -15.5%; with `Cc1nc(C)c(Oc2cccc(C(F)(F)F)c2)c(=O)[nH]1`, 3.35%; with `Cc1csc(NC(=O)CCCc2cccs2)n1`, -21.5%. Take `COc1cccc(CN2C(=O)CCC2(C)C(=O)NC2CCCCC2)c1` (stereo not drawn): the “hERG current change (%, negative = inhibition) at 10uM” value is on record as 12.9%. As for `CC(C)=C(NC(=O)c1ccccc1)C(=O)Nc1ccc(C(=O)O)cc1`, the figure is -0.701%; as for `CSc1ccc(/C=C(/NC(=O)c2ccccc2)C(=O)NCCN2CCOCC2)cc1`, -44.8%; as for `O=C(NC(Cc1c[nH]c2ccccc12)c1nnc2n1CCCCC2)c1cccs1` (stereo not drawn), -6.65%. As for `CCc1ccc(N2CC(C(=O)N3CCCC3)CC2=O)cc1` (stereo not drawn), the figure is -14.6%. With `Cc1cccc(COCC(CC(C)C)N2CCN(C(=O)c3ccc(C(F)(F)F)cc3)CCC2=O)c1` (stereo not drawn) the figure was -29.1%. `CCCC(=O)C1=C(O)C(C(=O)OC)C(C)(C)CC1=Nc1ccc(C)cc1` (stereo not drawn): the “hERG current change (%, negative = inhibition) at 10uM” value was -18.5%. As for `CCC(SC1=Nc2ccccc2C2=NC(CC(C)C)C(=O)N12)C(=O)Nc1ccc2c(c1)OCO2` (stereo not drawn), the figure is -39%. As for `O=CN1N=C(c2ccccc2)CC1c1ccccc1[N+](=O)[O-]` (stereo not drawn), the figure is 4.39%; as for `COc1ccc(NC(=O)CN(C)CC(=O)Nc2ccccc2SC)cc1Cl`, -14.6%.
